# Experimental data: PMC4336329 (PLoS ONE, 2015)
# The whole screen tested about 310,000 compounds, of which about 14,000 (4.5%) showed an effect of 50% or more. The effect is printed as a negative number. The list shows a part of the results.
# Target: human ether-à-go-go-related gene (hERG) potassium channel (human, UniProt Q12809)
# Assay: primary screen, population patch clamp on CHO cells stably expressing hERG
# 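Further: peak tail current of the secondary pulse compared with the same well before compound.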
# Chain of human ether-à-go-go-related gene (hERG) potassium channel (Q12809 whole entry, looked up): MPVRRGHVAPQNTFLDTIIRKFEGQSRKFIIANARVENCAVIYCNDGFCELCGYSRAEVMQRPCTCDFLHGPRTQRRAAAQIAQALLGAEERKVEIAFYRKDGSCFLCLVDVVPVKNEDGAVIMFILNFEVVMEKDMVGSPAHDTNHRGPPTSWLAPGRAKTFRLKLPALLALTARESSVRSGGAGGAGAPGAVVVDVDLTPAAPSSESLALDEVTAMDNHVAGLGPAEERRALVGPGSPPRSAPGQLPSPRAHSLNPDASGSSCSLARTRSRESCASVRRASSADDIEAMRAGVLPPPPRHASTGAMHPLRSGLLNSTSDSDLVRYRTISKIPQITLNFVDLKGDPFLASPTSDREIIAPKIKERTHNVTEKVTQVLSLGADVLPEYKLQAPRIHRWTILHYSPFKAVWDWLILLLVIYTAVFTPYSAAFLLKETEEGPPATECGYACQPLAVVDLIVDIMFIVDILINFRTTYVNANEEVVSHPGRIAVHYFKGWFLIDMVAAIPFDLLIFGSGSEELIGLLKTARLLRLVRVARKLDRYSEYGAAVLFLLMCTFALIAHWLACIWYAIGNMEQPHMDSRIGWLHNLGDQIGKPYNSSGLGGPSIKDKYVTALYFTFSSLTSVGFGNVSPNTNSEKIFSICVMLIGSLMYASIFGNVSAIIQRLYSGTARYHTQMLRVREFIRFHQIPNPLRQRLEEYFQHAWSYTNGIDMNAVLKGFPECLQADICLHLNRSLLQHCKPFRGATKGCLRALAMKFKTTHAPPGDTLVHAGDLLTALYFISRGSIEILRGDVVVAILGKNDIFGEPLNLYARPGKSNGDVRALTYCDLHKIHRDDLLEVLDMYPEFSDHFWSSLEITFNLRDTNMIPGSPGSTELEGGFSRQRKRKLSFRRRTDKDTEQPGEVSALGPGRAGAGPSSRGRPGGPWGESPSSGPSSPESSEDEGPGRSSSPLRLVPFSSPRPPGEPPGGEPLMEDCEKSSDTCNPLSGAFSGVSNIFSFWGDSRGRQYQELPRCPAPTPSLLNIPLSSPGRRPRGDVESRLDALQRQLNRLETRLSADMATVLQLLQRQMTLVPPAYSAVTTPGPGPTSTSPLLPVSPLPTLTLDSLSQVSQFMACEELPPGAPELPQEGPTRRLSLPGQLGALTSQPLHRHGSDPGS
row,Compound,"hERG current change (%, negative = inhibition) at 10uM"
1,CCCCNC(=O)CSc1nc(COc2ccccc2)nc2ccccc12,5.31%
2,CC1=Nc2cc(C(=O)NCC3CCCO3)ccc2Sc2ccc(Br)cc21 (stereo not drawn),-18.5%
3,CCCCc1ccc(NC(=O)N[C@H](C(=O)O)C(C)CC)cc1 (stereo partly drawn),-10.2%
4,COC(Cc1nnc(SC)n1-c1ccc(Cl)cc1)OC,-4.54%
5,COC(=O)Nc1ccc(OC)c(OC)c1,4.01%
6,O=S(=O)(c1cccs1)N1CCc2ccccc2C1,-5.63%
7,CCc1ccc(OCC(=O)Nc2cccc3nsnc23)cc1,15%
8,COC(=O)c1ccccc1S(=O)(=O)N1Cc2cc([N+](=O)[O-])ccc2Oc2ccccc21,11.7%
9,O=c1[nH]c2cc(Cl)ccc2n1-c1ccccc1,-3.91%
10,O=S(=O)(c1cccs1)N1CCC2(CC1)OCCO2,10.3%
11,CC(C)(C)c1nc2c(C#N)c(-c3ccc(Cl)cc3)ccn2n1,-11.5%
12,CC(CCc1ccc(O)cc1)NC1c2ccccc2-c2ccccc21 (stereo not drawn),-24.4%
13,Nc1c(-c2cccs2)cnn1-c1nc(-c2ccc(Cl)cc2Cl)cs1,-15.6%
14,COc1cc(NS(=O)(=O)c2ccc3[nH]c(=O)[nH]c3c2)cc(OC)c1,22.8%
15,O=C1[C@H]2[C@@H](c3ccc(F)cc3)N3C(=O)N(c4ccc(Br)cc4)C(=O)[C@@]3(Cc3ccc(Cl)cc3)[C@H]2C(=O)N1C1CCCCC1,14%
16,CC(C)(C)NC(=O)C(c1ccc(Cl)cc1)N(CCO)C(=O)c1snc(C(N)=O)c1N (stereo not drawn),7.97%
17,CCN(C(=O)CSc1cc(C)c2ccccc2n1)c1c(N)n(Cc2ccccc2)c(=O)[nH]c1=O,27.4%
18,COc1ccc(/C=N/NC(=O)C(N)=O)c(OC)c1OC,6.45%
19,O=C(Cn1c(=O)[nH]c2ccsc2c1=O)NC1CCCCC1,8.97%
20,Cc1ccc(/C=N\n2c(-c3ccccc3)n[nH]c2=S)s1,15%
21,CCCOc1ccc(C(=O)NC(=S)N2C[C@H]3C[C@H](C2)c2cccc(=O)n2C3)cc1,-9.23%
22,CCOc1ccc(CCNC(=O)c2nn(C)c3c2CS(=O)(=O)c2ccccc2-3)cc1,-47.2%

row,Compound,"hERG current change (%, negative = inhibition) at 10uM"
1,COc1ccc(C(=O)NC(=S)N2CCC(C)CC2)cc1,16.4%
2,O=C(CC1CCCCC1)c1c(O)c2ccccc2oc1=O,-14.4%
3,COc1ccc(CNC(=O)[C@@H](NC(=O)C2CCN(S(=O)(=O)c3ccccc3)CC2)C(C)C)cc1,21.2%
4,COCCCn1nnnc1SCC(=O)N1c2ccccc2CC1C (stereo not drawn),14.8%
5,COc1ccc(Cl)cc1-c1n[nH]c(=S)o1,18%
6,CC1(C)CC=C(NNC(=O)c2cccnc2)C(=O)C1,32.3%
7,CCc1ccccc1NC(=S)N1CCN(c2ccccn2)CC1,-2.49%
8,CCOc1ccc(NC(=S)N(CCOC)C(C)c2ccco2)cc1 (stereo not drawn),-3.2%
9,O=C(NCc1cccc(C(F)(F)F)c1)c1ccc(=O)[nH]c1,22.5%
10,COc1ccc(N(Cc2ccccc2)S(=O)(=O)c2cccc(C(=O)Nc3ccccn3)c2)cc1,-15.5%
11,Cc1noc(C(=O)Nc2cccnc2Cl)c1Cl,19.4%
12,S=C1NC[C@H](CC2CCCCC2)N1CCc1cccc2ccccc12,16.4%
13,CN(C)C(=O)Oc1cc(=O)n2c3c(cccc13)CCC2,3.81%
14,O=C(NC1CCCCC1)N1CCCCCCC1,4.28%
15,C=CCc1c(C)nc(-c2ccccc2)nc1N/N=C/c1ccncc1,-42.2%
16,O=C1NCCCC1C(=O)N/N=C/c1ccc([N+](=O)[O-])cc1 (stereo not drawn),-3.39%
17,COc1ccccc1N1CCN(C(=O)CN(c2ccc(C)c(C)c2)S(C)(=O)=O)CC1,-6.02%
18,COC(=O)C1=C(c2cc3ccccc3o2)C[C@@H]2CC[C@H]1N2C(=O)NCc1ccc(F)cc1,-6.96%
19,Cc1ccc(CSc2ccc(-c3ccco3)nn2)cc1,5.09%
20,CCCN(CCC)C1Sc2ccc(C(=O)OC)cc2NC1=O (stereo not drawn),-9.31%
21,COc1ccc(Cn2cnc([N+](=O)[O-])c2)cc1[N+](=O)[O-],-6.77%
22,O=C(CCNS(=O)(=O)c1cccc2nsnc12)N1CCc2ccccc21,-8.68%

row,Compound,"hERG current change (%, negative = inhibition) at 10uM"
1,COc1cc(NC(=S)NCc2ccco2)c(OC)cc1Cl,-5.96%
2,O=C(NCc1cccnc1)C1CCN(S(=O)(=O)c2cc(Cl)ccc2Cl)CC1,-21.7%
3,Cn1c(SCC(=O)Nc2ccc(Cl)cc2)nc(O)cc1=O,7.92%
4,NC(=O)[C@H]1CC2(CC(c3cccc(NC(=O)CC(c4ccccc4)c4ccccc4)c3)=NO2)CN1C(=O)C(c1ccccc1)c1ccccc1 (stereo partly drawn),8.82%
5,CCn1c(SCC(=O)NCc2ccc(C)cc2)nnc1-c1ccncc1,-0.947%
6,CC1CN(CC(O)COc2ccc(C(=O)c3ccccc3)cc2)CC(C)O1 (stereo not drawn),-63.3%
7,Cc1csc(CNC(=O)C2CCC(=O)N(CCCc3ccccc3)C2)n1 (stereo not drawn),-12.5%
8,N#Cc1nc(-c2ccco2)oc1N1CCN(Cc2ccccc2)CC1,-26.9%
9,O=C(NCc1cccs1)C1CCCN(c2nc3ccccc3o2)C1 (stereo not drawn),-45.8%
10,O=C(C[n+]1cccc(C(=O)N/N=C/c2ccc(Br)cc2)c1)c1ccccc1,-56.5%
11,C=CCSC1=C(C#N)C(c2ccc(OCC)cc2)CC(=O)N1 (stereo not drawn),-14.5%
12,Cc1ccnc(NC(=O)c2ccc3c(c2)S(=O)(=O)c2ccccc2C3=O)c1,-8.26%
13,Cc1cccc(NC(=O)c2ccc3nccnc3c2)n1,-22.8%
14,CCOc1ccc(NS(=O)(=O)c2ccc(NS(=O)(=O)c3ccccc3)cc2)cc1,-5.61%
15,CCOC(=O)CSc1nnc(CNC(=O)c2ccc(OC)cc2)n1-c1ccc(OC)cc1,-20.2%
16,O=C(Nc1ccc(S(=O)(=O)N2CCCCC2)cc1)C1CCN(C(=O)c2ccc(F)cc2)CC1,-33.7%
17,COc1cc(Nc2ccccc2Cl)c([N+](=O)[O-])nc1[N+](=O)[O-],0.00238%
18,Cc1ncc([N+](=O)[O-])n1CC(=O)Nc1ccc(Cl)cc1,0.883%
19,O=S(=O)(Nc1cccc(-c2nc3cccnc3s2)c1)c1ccc2c(c1)OCCO2,4.9%
20,COc1ccccc1N1CCN(C2CCN(S(=O)(=O)c3ccc(C)cc3)CC2)CC1,-36.4%
21,CCCc1ccc(-c2cc(NC(=O)CSc3n[nH]c(N)n3)n(-c3ccccc3)n2)cc1,11.4%
22,C/C(=N\NC(N)=O)C1CC(Cc2ccccc2)C(=O)O1 (stereo not drawn),7.84%

row,Compound,"hERG current change (%, negative = inhibition) at 10uM"
1,O=C(CCc1ccc(O)c(O)c1)N/N=C/c1cc2c(cc1[N+](=O)[O-])OCO2,10%
2,COc1c(C(=O)Nc2ccc(Cc3ccncc3)cc2)ccc2ccccc12,1.72%
3,Cc1cccc(NC(=O)Nc2ccc(S(=O)(=O)Nc3onc(C)c3C)cc2)c1,4.15%
4,O=C(Cn1nc(-c2ccc(Cl)cc2)ccc1=O)NCC1COCCO1 (stereo not drawn),6.48%
5,C=CCNC(=O)COc1ccc(S(=O)(=O)NC2CCCCC2)cc1,2.67%
6,O=C(COC(=O)Cc1c(F)cccc1Cl)NCCC1=CCCCC1,-7.61%
7,Cc1cccc(N2C(=O)c3cccnc3C2=O)c1,12%
8,O=C(CCCCCNC(=O)N1CCn2c1nc1ccccc12)NCc1ccccc1,-12.3%
9,COc1cc(CNc2ccc(S(N)(=O)=O)cc2)ccc1OCC(=O)NC1CCCCC1,25.8%
10,Cc1ccc(S(=O)(=O)c2nc(C)oc2NCc2ccccc2)cc1,24.2%
11,COc1ccc(O)c(C=Nc2cc(C)on2)c1,-0.2%
12,CC[C@H]1C2C[C@H]3[C@@H]4N(C)c5ccccc5C45C[C@H](C2[C@H]5O)N3[C@@H]1O (stereo partly drawn),-43.8%
13,CS(=O)(=O)c1ccccc1C(=O)Nc1ccc(-c2nc3ccccc3o2)cc1,2.48%
14,CCOC(=O)N1CCN(C(=O)CN(c2cccc(C(F)(F)F)c2)S(C)(=O)=O)CC1,-51.1%
15,CCCCCC/C=C/c1ccc(OC)c([C@H]2[C@H]3C=CC[C@@H](C)[C@@H]3C(=O)N2Cc2ccccc2)c1,11.5%
16,COc1ccc(C(=O)N2CCc3cc4c(cc3C2C)OCCCO4)cc1 (stereo not drawn),3.35%
17,Brc1ccc(OCc2nc3ccccc3[nH]2)cc1,13.9%
18,O=C(O)CSCNC(=O)CC12CC3CC(CC(C3)C1)C2,13.1%
19,COc1ccc(NC(=O)NNS(=O)(=O)c2cc(C)ccc2C)cc1OC,5.36%
20,COc1ccccc1C(=O)NCCC(=O)N1CC=C(c2ccccc2)CC1,-13.4%
21,C#CCn1c(O)c(N=NC(=O)CNC(=O)/C=C/c2ccccc2)c2ccccc21,-27.4%
